Measurements published in paper PMC4450054.
These are yes or no findings as the source states them, for the method shown. In cells and extracts the contact can be indirect. Some results given as binding are weak or reduced against the parent protein; the word gives no strength.

What was measured:
Test in all cases: split reporter; BiFC in agroinfiltrated Nicotiana benthamiana leaf cells; one protein fused to YFPct, the other to YFPnt; fluorescence seen 72 h after inoculation; reciprocal assays gave the same results; YFPct construct with empty YFPnt gave no signal
[1] = target: T1, HUA ENHANCER 4 (HEN4) (Arabidopsis thaliana) (UniProt F4KDN0)
T1 sequence: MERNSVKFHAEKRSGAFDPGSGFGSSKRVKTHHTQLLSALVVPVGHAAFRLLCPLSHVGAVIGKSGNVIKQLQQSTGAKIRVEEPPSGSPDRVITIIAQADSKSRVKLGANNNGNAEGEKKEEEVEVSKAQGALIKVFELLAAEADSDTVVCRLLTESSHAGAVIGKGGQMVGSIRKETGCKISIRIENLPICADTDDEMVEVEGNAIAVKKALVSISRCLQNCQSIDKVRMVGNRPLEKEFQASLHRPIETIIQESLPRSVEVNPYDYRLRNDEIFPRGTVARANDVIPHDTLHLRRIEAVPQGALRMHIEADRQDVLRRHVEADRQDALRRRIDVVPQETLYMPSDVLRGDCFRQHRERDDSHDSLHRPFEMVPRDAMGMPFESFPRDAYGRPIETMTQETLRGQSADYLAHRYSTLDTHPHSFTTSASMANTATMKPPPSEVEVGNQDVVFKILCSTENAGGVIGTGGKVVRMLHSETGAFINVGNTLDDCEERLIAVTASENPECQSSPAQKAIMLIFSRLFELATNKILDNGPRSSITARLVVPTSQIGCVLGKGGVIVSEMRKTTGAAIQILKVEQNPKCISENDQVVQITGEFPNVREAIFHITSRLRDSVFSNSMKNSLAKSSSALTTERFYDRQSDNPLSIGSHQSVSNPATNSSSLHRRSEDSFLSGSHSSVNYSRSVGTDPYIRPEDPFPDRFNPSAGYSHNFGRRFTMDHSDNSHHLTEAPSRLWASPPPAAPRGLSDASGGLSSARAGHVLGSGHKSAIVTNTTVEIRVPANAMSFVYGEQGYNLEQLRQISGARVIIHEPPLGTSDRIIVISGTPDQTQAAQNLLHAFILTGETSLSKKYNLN

[2] = target: T2, PEPPER (PEP) (Arabidopsis thaliana) (UniProt Q9SZH4)
T2 sequence: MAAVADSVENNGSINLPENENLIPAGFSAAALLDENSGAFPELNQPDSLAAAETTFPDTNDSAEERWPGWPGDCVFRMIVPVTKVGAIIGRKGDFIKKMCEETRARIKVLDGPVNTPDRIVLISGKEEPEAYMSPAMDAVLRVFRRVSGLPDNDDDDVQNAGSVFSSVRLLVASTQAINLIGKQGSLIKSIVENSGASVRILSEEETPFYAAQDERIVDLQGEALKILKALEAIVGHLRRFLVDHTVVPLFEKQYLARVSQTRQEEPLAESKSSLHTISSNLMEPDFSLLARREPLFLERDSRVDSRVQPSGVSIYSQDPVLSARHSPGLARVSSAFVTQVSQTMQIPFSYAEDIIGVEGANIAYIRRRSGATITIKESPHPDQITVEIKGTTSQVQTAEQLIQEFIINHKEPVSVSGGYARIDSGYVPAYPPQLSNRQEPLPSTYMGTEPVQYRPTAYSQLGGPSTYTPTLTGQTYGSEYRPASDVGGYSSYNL

[3] = target: T3, HUA1 (Arabidopsis thaliana) (UniProt Q941Q3)
T3 sequence: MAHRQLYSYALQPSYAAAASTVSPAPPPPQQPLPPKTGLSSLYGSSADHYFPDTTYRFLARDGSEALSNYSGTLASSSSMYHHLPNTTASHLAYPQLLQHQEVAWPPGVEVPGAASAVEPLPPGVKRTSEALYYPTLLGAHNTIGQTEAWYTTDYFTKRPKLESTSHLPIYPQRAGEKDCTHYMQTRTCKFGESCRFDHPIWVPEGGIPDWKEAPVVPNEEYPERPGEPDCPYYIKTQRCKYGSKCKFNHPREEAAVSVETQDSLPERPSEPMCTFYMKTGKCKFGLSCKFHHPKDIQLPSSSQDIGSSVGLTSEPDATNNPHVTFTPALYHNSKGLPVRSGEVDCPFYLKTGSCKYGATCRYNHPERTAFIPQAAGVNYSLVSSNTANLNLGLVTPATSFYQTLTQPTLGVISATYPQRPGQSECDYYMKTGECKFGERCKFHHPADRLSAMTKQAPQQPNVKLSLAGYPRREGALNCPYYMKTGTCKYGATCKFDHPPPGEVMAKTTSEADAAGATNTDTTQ

[4] = target: FLOWERING LOCUS WITH KH DOMAINS (FLK) (Arabidopsis thaliana) (UniProt Q9SR13)

Measured: binding

B1: FLOWERING LOCUS WITH KH DOMAINS (FLK) (protein, UniProt Q9SR13 1-577)
chain: MAEAEDQQNFVAHNGDQVPDQGSDELHNGLPYQVHDETLVHQPYEVEDPILEPQQYEVPDPTLEPQQYEVPDQTLEPQQYEVDDQLEYHQYQLQDQANEDVQDHSQDDLQYQPQNQEQFQLQDEAHDQAQYQAQGDVQDHNGDEVQDKVEDEEGIPEHLESLQKSEPEEDATVGGEEKRWPGWPGETVFRMLVPAQKVGSIIGRKGDVIKKIVEETRARIKILDGPPGTTERAVMVSGKEEPESSLPPSMDGLLRVHMRIVDGLDGEASQAPPPSKVSTRLLVPASQAGSLIGKQGGTVKAIQEASACIVRVLGSEDLPVFALQDDRVVEVVGEPTSVHRALELIASHLRKFLVDRSIIPFFENQMQKPTRQMDHMPPPHQSWGPPQGHAPSVGGGGYGHNPPPYMQPPPRHDSYYPPPEMRQPPMEKQPHQGISAYGREPPMNVHVSSAPPMVAQQVTQQMQIPLSYADAVIGTSGSNISYTRRLSGATVTIQETRGVPGEMTVEVSGTGSQVQTAVQLIQNFMAEAGAPAPAQPQTVAPEQQGYNPYATHGSVYAAAPTNPPGGYATDYSSGYGY
binds: [1] | [2] | [3] | [4]
